The other results are listed elsewhere or left out. Sequences were assembled here from the parent chain. Inactive controls read about 0.05.
B1: TEV protease; numbered along this chain (parent)
chain: MGESLFKGPRDYNPISSSICHLTNESDGHTTSLYGIGFGPFIITNKHLFRRNNGTLVVQSLHGVFKVKDTTTLQQHLVDGRDMIIIRMPKDFPPFPQKLKFREPQREERICLVTTNFQTKSMSSMVSDTSCTFPSGDGIFWKHWIQTKDGQCGSPLVSTRDGFIVGIHSASNFTNTNNYFTSVPKNFMELLTNQEAQQWVSGWRLNADSVLWGGHKVFMVKPEEPFQPVKEATQL

Variants of: B1
Experiment: raw area under fraction-flipped curve 0-4 h after induction (AUC4h, not background-subtracted), DNA-recorder readout of cleavage of the substrate (dimensionless); higher = more cleavage of the substrate by the protease variant
Settings: temperature: 34 °C; time window: 0-4 h after rhamnose induction
Protocol: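 In vivo DNA recorder in E. coli TOP10(DE3) ΔrhaA at 34 °C. Each TEVp single-site mutant (parent TEVp 0) is paired with a single-site variant of the 7-mer TEVs (canonical ENLYFQ|S). The substrate sits between flexible linkers in a Bxb1-sfGFP-TEVs-SsrA fusion, so cleavage stabilises Bxb1 and speeds flipping of a recombination array, read by NGS. The value is the raw area under the fraction-flipped curve over 0-4 h after rhamnose induction (AUC4h), with ≥20 reads per time point. It is not background-subtracted; inactive controls average about 0.047.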
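Also: Bxb1 expression induced with 0.2% (w/v) L-rhamnose at OD600 near 0.5, cultures sampled hourly, flipped fraction per protease–substrate barcode pair counted by paired-end Illumina sequencing.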

| Variant | area with substrate ENLYFAS | area with substrate ENLYFCS | area with substrate ENLYFDS | area with substrate ENLYFES | area with substrate ENLYFFS | area with substrate ENLYFGS | area with substrate ENLYFIS | area with substrate ENLYFKS | area with substrate ENLYFNS | area with substrate ENLYFPS | area with substrate ENLYFRS | area with substrate ENLYFSS | area with substrate ENLYFTS | area with substrate ENLYFWS | area with substrate ENLYFYS | area with substrate ENLYFHS | area with substrate ENLYFLS | area with substrate ENLYFMS | area with substrate ENLYFVS |
| --- | --- | --- | --- | --- | --- | --- | --- | --- | --- | --- | --- | --- | --- | --- | --- | --- | --- | --- | --- |
| I43H | 0.0435 | 0.0635 | 0.0521 | 0.0498 | 0.0503 | 0.0438 | 0.0526 | 0.0416 | 0.0536 | 0.0463 | 0.0525 | 0.0373 | 0.0386 | 0.0424 | 0.0481 |  |  |  |  |
| T44I | 0.0711 |  |  | 0.0657 | 0.0616 |  | 0.0629 | 0.0641 |  | 0.0498 | 0.0886 |  | 0.0428 | 0.0567 |  | 0.0659 | 0.0313 | 0.0565 |  |
| N45E | 0.052 | 0.0623 |  |  | 0.06 |  | 0.0568 | 0.0581 |  | 0.0528 | 0.06 | 0.0526 | 0.0594 | 0.0684 |  | 0.0549 | 0.0502 | 0.0637 |  |
| N45P | 0.0582 | 0.049 | 0.053 | 0.0628 |  |  | 0.0609 |  | 0.0684 | 0.0583 |  | 0.0553 |  | 0.09 |  |  | 0.0578 | 0.0604 |  |
| F49Q | 0.0942 |  |  | 0.0622 | 0.0367 | 0.0651 | 0.0576 | 0.0552 | 0.0347 | 0.0563 | 0.0587 | 0.0571 |  | 0.0465 | 0.0575 | 0.0671 |  | 0.0719 |  |
| F49Y | 0.0703 |  |  |  | 0.0451 |  | 0.0598 | 0.0517 | 0.0606 | 0.0633 | 0.0569 |  |  |  | 0.0718 | 0.0559 |  | 0.0469 |  |
| R50C | 0.0699 |  | 0.0709 | 0.0435 | 0.0606 |  | 0.0604 |  |  |  |  |  | 0.0629 | 0.0545 | 0.0656 | 0.065 |  | 0.0813 | 0.0659 |
| N52Q | 0.0589 |  | 0.0691 | 0.0557 | 0.0568 | 0.0671 | 0.0533 |  | 0.0576 | 0.0561 | 0.0597 | 0.0282 | 0.0495 |  |  | 0.0595 |  | 0.0644 |  |
| G54A | 0.0595 | 0.0596 |  | 0.0669 | 0.0819 |  | 0.0558 | 0.066 | 0.0611 | 0.0658 | 0.0736 |  | 0.0554 | 0.0585 | 0.0533 | 0.0664 | 0.0545 |  | 0.0593 |
| G54C | 0.0513 | 0.0649 | 0.0481 | 0.0649 | 0.071 | 0.0664 | 0.0556 | 0.0561 |  | 0.0607 | 0.0448 | 0.0496 | 0.0619 | 0.0548 | 0.0377 | 0.0607 | 0.0598 | 0.0579 | 0.0569 |
| G54M | 0.0512 | 0.0509 | 0.0523 | 0.0569 | 0.0647 | 0.064 | 0.0577 | 0.0655 | 0.0669 | 0.0596 | 0.0772 | 0.0566 | 0.062 | 0.0524 | 0.064 | 0.0527 |  | 0.0512 | 0.0543 |
| G54W | 0.064 |  | 0.0513 | 0.0536 | 0.0585 | 0.0663 | 0.0549 | 0.0602 |  | 0.0486 |  | 0.0425 | 0.0568 | 0.0567 | 0.0548 | 0.054 | 0.0584 |  | 0.0403 |
| T55C | 0.0426 | 0.0455 | 0.0548 | 0.0724 |  |  | 0.0467 | 0.0642 | 0.0571 | 0.0559 |  | 0.0764 | 0.0583 | 0.0621 | 0.0422 | 0.0556 | 0.0605 | 0.0736 | 0.0727 |
| V57N | 0.065 |  |  | 0.0841 | 0.0693 | 0.0628 | 0.0549 | 0.0624 |  | 0.0597 |  | 0.0523 | 0.0637 |  | 0.0388 | 0.0867 | 0.0675 | 0.0634 |  |
| S60C | 0.0639 | 0.0572 |  | 0.0642 | 0.0494 | 0.0896 | 0.0599 | 0.0331 | 0.0727 | 0.0429 | 0.0616 | 0.0595 | 0.0742 | 0.0594 | 0.0608 | 0.0705 | 0.0743 | 0.0582 | 0.0487 |
| H62Y | 0.0563 |  | 0.0253 | 0.0624 | 0.0756 | 0.0682 | 0.0501 |  | 0.0561 | 0.038 |  | 0.0706 | 0.0499 | 0.0567 | 0.0524 |  | 0.0664 | 0.0547 | 0.06 |
| G63L | 0.0539 | 0.0618 | 0.065 | 0.0708 | 0.067 | 0.0507 | 0.0611 | 0.0488 |  | 0.0554 | 0.0425 | 0.0564 | 0.0479 | 0.0478 | 0.0534 | 0.0656 | 0.0707 | 0.0684 | 0.0663 |
| G63R | 0.0649 | 0.0531 | 0.0281 | 0.0676 | 0.0554 |  | 0.0521 |  |  | 0.0539 | 0.0755 |  | 0.0528 | 0.0608 | 0.0672 | 0.0638 |  | 0.0639 | 0.0605 |
| G63T | 0.0608 | 0.0495 | 0.0609 | 0.0567 | 0.072 |  | 0.057 | 0.0506 |  | 0.0744 |  |  | 0.0455 | 0.0661 |  | 0.0512 | 0.0547 | 0.0574 |  |
| F65N | 0.032 | 0.0559 | 0.0667 | 0.0619 | 0.0825 |  | 0.0397 | 0.0508 | 0.0615 | 0.0509 |  |  | 0.0439 | 0.0476 | 0.0568 | 0.0461 |  | 0.0585 | 0.0339 |
| K66D | 0.0674 |  | 0.0601 | 0.0641 |  |  | 0.0609 |  | 0.0931 | 0.0639 | 0.0528 |  | 0.0582 | 0.0551 | 0.0681 |  |  | 0.072 |  |
| K66M | 0.0514 | 0.0633 | 0.0528 | 0.0545 |  |  | 0.0535 | 0.0628 | 0.0605 | 0.0606 |  |  | 0.0668 |  | 0.0676 |  | 0.0697 | 0.0742 | 0.0628 |
| V67A | 0.0465 | 0.0523 | 0.0527 | 0.0832 | 0.0672 |  | 0.0588 | 0.0528 | 0.0549 | 0.0499 | 0.0645 |  |  | 0.0459 | 0.0512 | 0.0581 |  | 0.0538 | 0.038 |
| V67S | 0.0534 |  | 0.0411 | 0.0541 | 0.0597 |  | 0.0536 | 0.0404 | 0.0589 | 0.0466 | 0.054 |  | 0.0564 |  |  | 0.0515 |  | 0.0532 | 0.0439 |
| V67W | 0.04 | 0.0554 |  |  | 0.0527 | 0.047 | 0.049 | 0.0515 |  | 0.0642 | 0.0584 | 0.0584 | 0.0498 |  | 0.0732 | 0.0681 | 0.0417 | 0.0616 | 0.0679 |

From the supplement of paper PMC12217912
